In ChEMBL document CHEMBL4888484, “Replenishing the malaria drug discovery pipeline: Screening and hit evaluation of the MMV Hit Generation Library 1 (HGL1) against asexual blood stage Plasmodium falciparum ,using a nano luciferase reporter read-out” (2022):
Screen size: about 150,000 compounds; about 540 (0.36%) showed an effect of 50% or more. Some of the results follow.

Tested on: Plasmodium falciparum
Experiment: Primary screen in NF54 nanoGlo assay, in single point, at 2uM, 72h; a lower Z score goes with more inhibition
Format: functional, Erythrocyte
Details: timepoint 72 hour

Compared with `O=C(CCNc1ncc(Cl)cn1)N1CCCCC1`, `O=C(O)C1CCC(Nc2ccc(N3CCCCC3)cn2)CC1` (stereo not drawn) is higher in “% Inhibition” value: -15% for the first, -8% for the second.

First: O=C(c1ccccc1F)N(Cc1ccccc1Cl)[C@H]1CCS(=O)(=O)C1
Second: Cc1ccccc1NC(=O)Cc1nc(C)c(C(=O)NCc2ccccc2)s1
The “% Inhibition” value of the first is lower: -14% for the first, 10% for the second.

Compared with `O=C(c1ccn(CC(F)(F)F)n1)N1Cc2ccc(Br)cc2C1`, `NC12CCCC1CN(C(=O)Cc1cccc(C(F)(F)F)n1)C2` (stereo not drawn) is higher in “% Inhibition” value: -13% for the first, 3% for the second.

Compared with `CCCCn1nnnc1NCc1cccn1C`, `CCCn1nc(C2CCOCC2)nc1-c1ccnc(NC)c1` is lower in “% Inhibition” value: -4% for the first, -25% for the second.

`Cc1cc(-c2cc(-c3ccc[nH]3)nc(N)c2C#N)ccc1O` and `Cc1nn(Cc2cc(-c3ccccc3)on2)c(=O)c(C#N)c1C` are the same in “% Inhibition” value: -6% for the first, -6% for the second.

First: O=C(CCN(Cc1ccccc1)c1nc(-c2ccc(F)cc2)nc2ccccc12)N1CCOCC1
Second: O=C(COC(=O)c1cc(-c2ccc(-c3ccccc3)cc2)nc2ccccc12)Nc1ccccc1C(F)(F)F
The “% Inhibition” value of the first is higher: 4% for the first, -13% for the second.

First: Cc1cc(O)c([C@H](c2ccccc2)N2CCC(C)CC2)c(=O)n1Cc1ccccn1
Second: C[C@H](Nc1nc(N(C)C)nc2ccccc12)c1ccccc1
The “% Inhibition” value of the first is higher: 0% for the first, -5% for the second.

First: COCCN1CCC(CN(Cc2ccncc2)C(=O)[C@H]2C[C@H]3C=C[C@@H]2C3)CC1
Second: CCN(C(=O)c1cccc(CNc2ccncn2)c1)C1CCCCC1
The “% Inhibition” value of the first is higher: -12% for the first, -13% for the second.

Going from `CC1CCN(C(=O)c2csc3c2CCCC3)CC1` to `COc1ccc(C(=O)N2CCCCCCN(C)C(=O)[C@@H]3CCC[C@@H]32)cn1`, the “% Inhibition” value falls from 7% to -8%.

`CCOCc1nc(C)cc(N2CCc3c(cnn3-c3ccccc3)C2)n1` and `COc1ccc(S(=O)(=O)Cc2nnnn2-c2ccccc2)cc1` are the same in “% Inhibition” value: -3% for the first, -3% for the second.

Compared with `O=C(Nc1cnn(C[C@H]2COc3ccccc3O2)c1)c1ccco1`, `NC(=O)[C@@H]1CC(C(=O)Nc2cc[nH]n2)=NN1c1ccccc1` is lower in “% Inhibition” value: 14% for the first, -9% for the second.

First: Cc1cc(C(=O)NCc2ccco2)on1
Second: CC(C)(C)OC(=O)N1C[C@H](NCc2ccco2)C2(CCOCC2)C1
The “% Inhibition” value of the first is lower: -8% for the first, 0% for the second.

Compared with `O=C(CCC1CCCC1)Nc1nc(-c2ccc3c(c2)COC3)cs1`, `CCc1nnc2n1C[C@@H](CNCc1ccc3c(c1)CCO3)CC2` is lower in “% Inhibition” value: -7% for the first, -9% for the second.

Compared with `CCN(C(=O)c1nnn(C(C)C)c1C)[C@@H](CO)c1ccccc1`, `COC(=O)C(C)C(NCC(N)=O)c1ccccc1` (stereo not drawn) is higher in “% Inhibition” value: -9% for the first, 9% for the second.

Compared with `Cc1cccc(NC(=O)N2C3CCC2CC(O)C3)n1` (stereo not drawn), `CCOc1ccccc1CN1CCN(CC2CC2)[C@@H]2CS(=O)(=O)C[C@@H]21` is higher in “% Inhibition” value: -12% for the first, -7% for the second.

First: C=CCc1cc(C(=O)NCC)ccc1OC
Second: CCc1ccc(C(=O)CCC(=O)N[C@@H](C)CS(C)(=O)=O)cc1
The “% Inhibition” value of the first is higher: -8% for the first, -11% for the second.

First: Cc1cnc(CCNC(=O)c2nn(-c3cccc(F)c3)cc2O)s1
Second: CCN(Cc1nc2ccccc2c(=O)[nH]1)C(=O)c1cccc(-n2cnnn2)c1
The “% Inhibition” value of the first is higher: 1% for the first, -4% for the second.

Going from `CC1CN(c2ncc(S(N)(=O)=O)s2)C(C)C(C)O1` (stereo not drawn) to `Cc1nnc([C@H](C)S(=O)(=O)CCCC(C)C)o1`, the “% Inhibition” value rises from -1% to 2%.

Compared with `Cc1ccc(S(=O)(=O)N2C(=O)CC[C@H]2C(=O)N2CCCCCC2)cc1C`, `CC(C)c1ccc(S(=O)(=O)c2c(C(=O)N3CCCCC3)cnc3ccc(F)cc23)cc1` is lower in “% Inhibition” value: -12% for the first, -16% for the second.

Going from `C[C@@]1(CCc2ccc(OC(F)F)cc2)NC(=O)N(Cc2coc(-c3cccs3)n2)C1=O` to `Cc1ccc(-c2nc(-c3ccc(C(=O)NCc4ccc(OC(C)C)cc4)s3)no2)cc1`, the “% Inhibition” value falls from -10% to -11%.

First: Cc1nn(C(C)(C)C)cc1C(=O)NCC1(O)CCCCCC1
Second: CCN(CC)[C@@]1(c2nnnn2C2CCCC2)CCN(C(=O)C2CCC2)C1
The “% Inhibition” value of the first is higher: -6% for the first, -9% for the second.

First: CCc1noc(C)c1COc1cccc2c1[C@@H](O)CC(C)(C)O2
Second: Fc1ccc(OCc2csc(-c3ncccn3)n2)c(F)c1
The “% Inhibition” value of the first is lower: -13% for the first, 3% for the second.

Compared with `Cc1ccc(C)c(S(=O)(=O)Nc2cc(NC(=O)c3cnoc3C)ccc2Cl)c1`, `COC(=O)c1ccc(O)c(NC(=O)c2cc3n(n2)CCO3)c1` is lower in “% Inhibition” value: 16% for the first, -33% for the second.

Going from `CC(C)c1ccc(C#N)c(NC[C@H](O)CN(C)C)n1` to `Cc1csc([C@@H](C)CNC(=O)c2cc(=O)cc(C)n2C)n1`, the “% Inhibition” value falls from -9% to -13%.

Going from `Cn1ncc2c(=O)[nH]c(CN3CCN(c4ccc(O)cc4)CC3)nc21` to `COc1ccc(N2C(=O)CN(Cc3ccc4c(c3)OCO4)[C@H]3CS(=O)(=O)C[C@H]32)cc1Cl`, the “% Inhibition” value rises from -3% to -1%.

First: CC(=O)c1ccc(S(=O)(=O)N2CCOc3ccc(C(=O)N4CCOCC4)cc3C2)cc1
Second: CCc1ccccc1C(N)CNC(=O)N1CCCC(C2CCCCO2)C1 (stereo not drawn)
The “% Inhibition” value of the first is higher: 1% for the first, -3% for the second.

Compared with `COc1cccn2ncc(C(=O)N3CCO[C@H]4CCC[C@H]43)c12`, `CN(Cc1noc(C2CC2)n1)[C@H]1CCc2ccccc2C1` is higher in “% Inhibition” value: -8% for the first, 0% for the second.

Going from `O=C(CCNc1ncc(Cl)cn1)N1CCCCC1` to `O=C(O)C1CCC(Nc2ccc(N3CCCCC3)cn2)CC1` (stereo not drawn), the Z score falls from 2.28 to 1.02.

Going from `O=C(c1ccccc1F)N(Cc1ccccc1Cl)[C@H]1CCS(=O)(=O)C1` to `Cc1ccccc1NC(=O)Cc1nc(C)c(C(=O)NCc2ccccc2)s1`, the Z score falls from 1.27 to -1.28.

Compared with `O=C(c1ccn(CC(F)(F)F)n1)N1Cc2ccc(Br)cc2C1`, `NC12CCCC1CN(C(=O)Cc1cccc(C(F)(F)F)n1)C2` (stereo not drawn) is lower in Z score: 2.11 for the first, -0.57 for the second.

Going from `CCCCn1nnnc1NCc1cccn1C` to `CCCn1nc(C2CCOCC2)nc1-c1ccnc(NC)c1`, the Z score rises from 0.72 to 3.81.

Going from `Cc1cc(-c2cc(-c3ccc[nH]3)nc(N)c2C#N)ccc1O` to `Cc1nn(Cc2cc(-c3ccccc3)on2)c(=O)c(C#N)c1C`, the Z score falls from 1.04 to 0.83.

Going from `O=C(CCN(Cc1ccccc1)c1nc(-c2ccc(F)cc2)nc2ccccc12)N1CCOCC1` to `O=C(COC(=O)c1cc(-c2ccc(-c3ccccc3)cc2)nc2ccccc12)Nc1ccccc1C(F)(F)F`, the Z score rises from -0.78 to 2.5.

Going from `Cc1cc(O)c([C@H](c2ccccc2)N2CCC(C)CC2)c(=O)n1Cc1ccccn1` to `C[C@H](Nc1nc(N(C)C)nc2ccccc12)c1ccccc1`, the Z score rises from 0.05 to 0.67.

First: COCCN1CCC(CN(Cc2ccncc2)C(=O)[C@H]2C[C@H]3C=C[C@@H]2C3)CC1
Second: CCN(C(=O)c1cccc(CNc2ccncn2)c1)C1CCCCC1
The Z score of the first is lower: 1.35 for the first, 2.01 for the second.

Going from `CC1CCN(C(=O)c2csc3c2CCCC3)CC1` to `COc1ccc(C(=O)N2CCCCCCN(C)C(=O)[C@@H]3CCC[C@@H]32)cn1`, the Z score rises from -1.16 to 1.08.

Going from `CCOCc1nc(C)cc(N2CCc3c(cnn3-c3ccccc3)C2)n1` to `COc1ccc(S(=O)(=O)Cc2nnnn2-c2ccccc2)cc1`, the Z score falls from 0.49 to 0.4.

Going from `O=C(Nc1cnn(C[C@H]2COc3ccccc3O2)c1)c1ccco1` to `NC(=O)[C@@H]1CC(C(=O)Nc2cc[nH]n2)=NN1c1ccccc1`, the Z score rises from -1.74 to 0.84.

Going from `Cc1cc(C(=O)NCc2ccco2)on1` to `CC(C)(C)OC(=O)N1C[C@H](NCc2ccco2)C2(CCOCC2)C1`, the Z score falls from 1.27 to 0.02.

First: O=C(CCC1CCCC1)Nc1nc(-c2ccc3c(c2)COC3)cs1
Second: CCc1nnc2n1C[C@@H](CNCc1ccc3c(c1)CCO3)CC2
The Z score of the first is lower: 0.7 for the first, 1.33 for the second.

First: CCN(C(=O)c1nnn(C(C)C)c1C)[C@@H](CO)c1ccccc1
Second: COC(=O)C(C)C(NCC(N)=O)c1ccccc1 (stereo not drawn)
The Z score of the first is higher: 1.82 for the first, -1.2 for the second.

Compared with `Cc1cccc(NC(=O)N2C3CCC2CC(O)C3)n1` (stereo not drawn), `CCOc1ccccc1CN1CCN(CC2CC2)[C@@H]2CS(=O)(=O)C[C@@H]21` is higher in Z score: 1 for the first, 1.28 for the second.

Compared with `C=CCc1cc(C(=O)NCC)ccc1OC`, `CCc1ccc(C(=O)CCC(=O)N[C@@H](C)CS(C)(=O)=O)cc1` is higher in Z score: 0.7 for the first, 0.94 for the second.

Going from `Cc1cnc(CCNC(=O)c2nn(-c3cccc(F)c3)cc2O)s1` to `CCN(Cc1nc2ccccc2c(=O)[nH]1)C(=O)c1cccc(-n2cnnn2)c1`, the Z score rises from -0.17 to 0.42.

Compared with `CC1CN(c2ncc(S(N)(=O)=O)s2)C(C)C(C)O1` (stereo not drawn), `Cc1nnc([C@H](C)S(=O)(=O)CCCC(C)C)o1` is lower in Z score: 0.22 for the first, -0.24 for the second.

Going from `Cc1ccc(S(=O)(=O)N2C(=O)CC[C@H]2C(=O)N2CCCCCC2)cc1C` to `CC(C)c1ccc(S(=O)(=O)c2c(C(=O)N3CCCCC3)cnc3ccc(F)cc23)cc1`, the Z score falls from 1.58 to 1.52.

Going from `C[C@@]1(CCc2ccc(OC(F)F)cc2)NC(=O)N(Cc2coc(-c3cccs3)n2)C1=O` to `Cc1ccc(-c2nc(-c3ccc(C(=O)NCc4ccc(OC(C)C)cc4)s3)no2)cc1`, the Z score falls from 1.87 to 1.44.

First: Cc1nn(C(C)(C)C)cc1C(=O)NCC1(O)CCCCCC1
Second: CCN(CC)[C@@]1(c2nnnn2C2CCCC2)CCN(C(=O)C2CCC2)C1
The Z score of the first is lower: 0.86 for the first, 1.23 for the second.

First: CCc1noc(C)c1COc1cccc2c1[C@@H](O)CC(C)(C)O2
Second: Fc1ccc(OCc2csc(-c3ncccn3)n2)c(F)c1
The Z score of the first is higher: 1.57 for the first, -0.51 for the second.

Going from `Cc1ccc(C)c(S(=O)(=O)Nc2cc(NC(=O)c3cnoc3C)ccc2Cl)c1` to `COC(=O)c1ccc(O)c(NC(=O)c2cc3n(n2)CCO3)c1`, the Z score rises from -2.12 to 6.02.

Compared with `CC(C)c1ccc(C#N)c(NC[C@H](O)CN(C)C)n1`, `Cc1csc([C@@H](C)CNC(=O)c2cc(=O)cc(C)n2C)n1` is lower in Z score: 1.75 for the first, 1.65 for the second.

First: Cn1ncc2c(=O)[nH]c(CN3CCN(c4ccc(O)cc4)CC3)nc21
Second: COc1ccc(N2C(=O)CN(Cc3ccc4c(c3)OCO4)[C@H]3CS(=O)(=O)C[C@H]32)cc1Cl
The Z score of the first is higher: 0.66 for the first, 0.17 for the second.

First: CC(=O)c1ccc(S(=O)(=O)N2CCOc3ccc(C(=O)N4CCOCC4)cc3C2)cc1
Second: CCc1ccccc1C(N)CNC(=O)N1CCCC(C2CCCCO2)C1 (stereo not drawn)
The Z score of the first is lower: -0.17 for the first, 0.29 for the second.

Going from `COc1cccn2ncc(C(=O)N3CCO[C@H]4CCC[C@H]43)c12` to `CN(Cc1noc(C2CC2)n1)[C@H]1CCc2ccccc2C1`, the Z score falls from 1.34 to 0.02.
